By % Inhibition is commonly meant the change of the read-out against control, counted positive when it falls.

The whole screen tested about 150,000 compounds, of which about 540 (0.36%) showed an effect of 50% or more. This is one part of the list.

The values that follow come from ChEMBL document CHEMBL4888484, “Replenishing the malaria drug discovery pipeline: Screening and hit evaluation of the MMV Hit Generation Library 1 (HGL1) against asexual blood stage Plasmodium falciparum ,using a nano luciferase reporter read-out” (2022).

For the experiment, the system named is Plasmodium falciparum. Put plainly: Primary screen in NF54 nanoGlo assay, in single point, at 2uM, 72h; a lower Z score goes with more inhibition. The following applies: timepoint 72 hour. Format: functional, Erythrocyte.
For the compound `Cc1nc(Cc2noc(CC3(O)CCCCC3)n2)no1`, the “% Inhibition” value is 6% and the Z score is reported as -0.7.

For `COc1cc(C)ccc1CN[C@H]1CCC1(OC)OC`, the “% Inhibition” value is given as 3% and the Z score is given as -0.4.

For the compound `CC(C)c1nc(Cn2ccnc2[C@H]2CCOC2)cs1`, the “% Inhibition” value is given as -1% and the Z score stood at 0.17.

For the compound `COc1ccc(-n2nc3nc(N4CCN(CCN(C)C)CC4)nc(-c4cccc(F)c4F)c3c2N)cc1`, the “% Inhibition” value was determined as 7% and the Z score is -0.86.

On to `Cc1ccc([C@@H](O)CS(=O)(=O)Cc2c(C)noc2C)cc1C`, for which the “% Inhibition” value is reported as -1% and the Z score is recorded as 0.09.

As to `COC1(C)CN(C(=O)[C@H]2C[C@@H]2c2cccc(Cl)c2)C1`, the “% Inhibition” value is given as -12% and the Z score was determined as 2.3.

For `Cc1cnn(Cc2ccc(Cl)cc2)c1NC(=O)NCC1(C)COC1`, the “% Inhibition” value is -10% and the Z score was 1.06.

Consider `Cn1cc(S(=O)(=O)N2C[C@H]3CCC(=O)c4cccc2c43)cn1`, for which the “% Inhibition” value is given as 1% and the Z score is given as -0.11.

As to `Cc1nc(C)c(C(=O)NCC2CCN(c3cnsn3)CC2)o1`, the “% Inhibition” value was -5% and the Z score is 0.78.

In the case of `CN(C(=O)CCC(F)(F)F)[C@H]1CC(=O)N(Cc2ccccc2)C1=O`, the “% Inhibition” value is recorded as -5% and the Z score is on record as 0.6.

With `O=C(CCN1CCc2sccc2C1)Nc1cccnc1`, the “% Inhibition” value is given as -9% and the Z score is on record as 1.12.

Regarding `CC(=O)c1ccc(NC(=O)Cn2nc(C(=O)N3CCOCC3)cc2C)cc1`, the “% Inhibition” value is listed as -4% and the Z score stood at 0.61.

Turning to `COc1c(C)cc(C(=O)[C@H]2CCCN(Cc3nc4ccccc4n3C)C2)cc1C`, the “% Inhibition” value is -23% and the Z score came to 2.03.

As to `Cc1cc(C(=O)NCCc2ccc3c(c2)OCO3)c(C)[nH]1`, the “% Inhibition” value was -11% and the Z score is listed as 2.06.

On to `CC1=CCCC(C)C1CNCC(O)c1ccncc1` (centres undefined), for which the “% Inhibition” value worked out at 2% and the Z score is on record as -0.25.

On to `CC1CC(C)C(C(=O)NS(=O)(=O)c2ccc3ccccc3c2F)O1` (centres undefined), for which the “% Inhibition” value was -6% and the Z score was 1.04.

In the case of `COc1cc(CN(C)CCC2CCOCC2)ccc1OC[C@@H](O)CN1CCCCCCC1`, the “% Inhibition” value is reported as -4% and the Z score was 0.77.

Regarding `O=C(Nc1cccc(C(F)(F)F)c1)[C@@H]1COCC(=O)N1Cc1ccccc1`, the “% Inhibition” value amounted to 0% and the Z score amounted to 0.05.

Take `CN(Cc1cccc(F)c1)C(=O)Cn1cnc2c1c(=O)n(C)c(=O)n2C`: the “% Inhibition” value is reported as -9% and the Z score was 0.74.

As for `COc1ccccc1CCNC(=O)N(Cc1ccccn1)C[C@@H]1CCC(=O)N1`, the “% Inhibition” value is reported as -1% and the Z score is given as 0.12.

Regarding `Cc1[nH]c(=O)c(C#N)cc1C(=O)NCc1cccnc1Oc1ccccc1F`, the “% Inhibition” value was -10% and the Z score is reported as 1.26.

In the case of `Cc1ccc(-c2nnc(-c3nc(NCc4ccc(F)cc4)c4ccccc4n3)o2)cc1`, the “% Inhibition” value is recorded as -11% and the Z score is reported as 2.05.

Turning to `Cn1cnc(CCNC(=O)OC[C@H]2CCCO2)c1Br`, the “% Inhibition” value was 3% and the Z score was -0.48.

In the case of `O=C(N1CCCC1)N1CC[C@@]2(O)CCN(Cc3cccc4ncccc34)C[C@H]2C1`, the “% Inhibition” value is -6% and the Z score was 0.93.

`Nc1ccc(F)cc1NC(=O)c1coc(-c2ccccc2)n1`: the “% Inhibition” value is -10% and the Z score was 1.7.

Turning to `N#Cc1c2n(c(=O)n(C[C@H](O)COCc3ccco3)c1=O)CCC2`, the “% Inhibition” value is -2% and the Z score turned out to be 0.23.

Consider `CN(C(=O)NCCc1csc(C(C)(C)C)n1)[C@H]1CCCNCC1`, for which the “% Inhibition” value is recorded as 10% and the Z score is on record as -1.29.

Take `COc1cccc(CC(=O)N2CCc3nc(N4CCC(C)CC4)nc(Oc4ccccc4OC)c3C2)c1`: the “% Inhibition” value came out at 27% and the Z score is listed as -5.15.

Regarding `CCN(Cc1cccc2cccnc12)c1ccccc1`, the “% Inhibition” value is on record as -5% and the Z score is on record as 0.48.

Take `O=C1N[C@@](Cc2ccccc2Cl)(C2CCN(C/C=C/c3ccco3)CC2)C(=O)N1CC1CC1`: the “% Inhibition” value is -11% and the Z score is 1.42.

Consider `Cc1cccc2sc(OC3CN(C(=O)c4ccc5[nH]cnc5c4)C3)nc12`, for which the “% Inhibition” value was -8% and the Z score amounted to 0.91.

Turning to `O=C(c1c(F)cccc1Cl)N1CCO[C@H](c2ncon2)C1`, the “% Inhibition” value turned out to be 0% and the Z score worked out at 0.03.

Regarding `O=C(CCc1ccc2c(c1)CCO2)NC1CCCC1`, the “% Inhibition” value was determined as 5% and the Z score is -0.58.

In the case of `C[C@H](NC(=O)Nc1ccc(-c2cc[nH]n2)cc1)c1nc(C2CCCC2)no1`, the “% Inhibition” value was 2% and the Z score is reported as -0.26.

On to `C=CCCCC(C)NC(=O)N1CCOC(c2nc(C)cs2)C1` (centres undefined), for which the “% Inhibition” value is given as -16% and the Z score came to 2.25.

As for `O=C(c1csc2c1CCCC2)N1CCC[C@H](Nc2ccc3c(c2)OCCO3)C1`, the “% Inhibition” value is recorded as 2% and the Z score is reported as -0.24.

On to `CCc1ccc(S(=O)(=O)N(CCN(C)C)Cc2ccccc2F)s1`, for which the “% Inhibition” value is recorded as -2% and the Z score is 0.27.

Consider `NS(=O)(=O)c1ccc(-n2ccnc2-c2cc(-c3ccccc3)no2)cc1`, for which the “% Inhibition” value is recorded as -16% and the Z score is 1.47.

Consider `Cc1c(C(=O)N[C@H](c2cccnc2)c2cc3ccccc3o2)cnn1C`, for which the “% Inhibition” value was 14% and the Z score was -2.12.

Regarding `CC(NC(=O)C1CCCN(c2nccn3nc(-c4cccc(Cl)c4)cc23)C1)c1ccccc1` (centres undefined), the “% Inhibition” value is recorded as 2% and the Z score is -0.26.

Regarding `C[C@H]1Cc2cc(Br)cc3c(=O)c(C(=O)Nc4ccc(F)cc4)cn1c23`, the “% Inhibition” value is recorded as -1% and the Z score came to 0.12.

On to `C#CCCC1(CCC(=O)N2Cc3cccnc3C2)N=N1`, for which the “% Inhibition” value is on record as 0% and the Z score is given as 0.01.
